# The campaign covered roughly 130,000 compounds. About 1,900 (1.5%) were called active. The inconclusive results got no clear call from the source; some entries with a clear call stand among them for comparison. Calls come from the whole dose curve; as a rule, active = well fitted cell-killing curve with a large enough effect; inconclusive = small, poorly fitted or top-dose-only effect; inactive = no such curve, though single readings can be large or run the other way. Potencies beside an inconclusive call are fits to weak or partial responses and may not hold up.
# Test: qHTS Screen for Compounds that Selectively Target Cancer Cells with p53 Mutations: Cytotoxicity of p53ts Cells at the Nonpermissive Temperature; note: nearly all actives have a fitted effect of over 55% in size
# Details: H1299-p53A138V viability at 39C, ATP luminescence, 24 h; activity change, negative = cell killing: at 46.1 µM (top of the series)
# % is set by controls: 0 for no effect and ±100 for the full control effect; potency is the fitted concentration of half-maximal effect; tags give direction and shape of the fitted curve.
Compound,Potency,"activity change, negative = cell killing"
CCOC(=O)C1CCCN(C(=O)C2CCN(S(=O)(=O)N3CCC4(CC3)OCCO4)CC2)C1 (configuration not stated),"inconclusive: 31.6 µM [cytotoxic, single point]",
COC(=O)c1[nH]c2ccc(Br)cc2c1NC(=O)C(C)N1CCN(C2CCCCC2)CC1 (configuration not stated),"inconclusive: 31.6 µM [cytotoxic, single point]",
CN(C)c1ccc(Nc2nc(-c3cccnc3)cs2)cc1,active: 3.16 µM,
Cc1ccc(N(CC(=O)NCc2ccc(Cl)cc2)S(=O)(=O)N(C)C)cc1,,inactive: -7.17%
CC(=O)N1CCN(c2csc3ccc(F)cc3c2=O)CC1,"inconclusive: 0.02 µM [cytotoxic, full curve]",
CCCN1CCN(CCNC(=O)Nc2ccc(OC)cc2OC)CC1,,inactive: -10.3%
COc1ccc(C(=O)Nc2nc3ccccc3[nH]2)cc1OC,"inconclusive: 12.6 µM [cytotoxic, single point]",
CCOC(=O)c1c(C)oc2ncnc(N3CCN(c4ccccc4OC)CC3)c12,,inactive: 15.7%
CCS(=O)(=O)CCSc1nc2ccccc2s1,,inactive: 8.36%
CN(c1nc2ccccc2n2c(-c3ccco3)nnc12)S(=O)(=O)c1ccccc1,,inactive: 1.85%
CN(C)c1ccc(C(CNC(=O)c2ccc(C(C)(C)C)cc2)N2CCOCC2)cc1 (configuration not stated),,inactive: -6.71%
COc1cc(C(=O)NCC(c2cccnc2)N2CCc3ccccc32)cc(OC)c1OC (configuration not stated),,inactive: -14.5%
CN1CCN(c2ncnc3ccc(-c4ccc5c(c4)OCO5)cc23)CC1,,inconclusive: -30.9% [cytotoxic]
Cc1ccc2c(C)c(C(=O)N(Cc3ccc(Cl)cc3)C3CCS(=O)(=O)C3)oc2c1 (configuration not stated),,inactive: -14.7%
CCN(c1ccccc1)S(=O)(=O)c1nnc(NC(=O)c2cccs2)s1,active: 1.26 µM,
Cc1ccc(-n2nc(C)c(NC(=O)CCl)c2C)cc1,"inconclusive: 14.1 µM [cytotoxic, single point]",
Cc1ccc(Cl)cc1-n1ncc2c(NC3CCCCCC3)ncnc21,"inconclusive: 3.98 µM [cytotoxic, partial curve, poor fit]",
CN(C)CC(C(=O)c1ccccc1)c1ccccc1 (configuration not stated),"inconclusive: 31.6 µM [cytotoxic, single point]",
CC(=O)c1ccc(S(=O)(=O)Nc2cccc(-c3ccc(N4CCCCCC4)nn3)c2)cc1,active: 6.31 µM,
Cn1nnnc1Sc1ncnc2scc(-c3ccc(F)cc3)c12,"inconclusive: 31.6 µM [cytotoxic, single point]",
O=C(N/N=C1/C[C@@H](O)[C@@H](O)[C@@H]2[C@@H]3C(=O)N(Cc4ccccc4)C(=O)[C@H]3CC[C@H]12)OCc1ccccc1,,inactive: 7.32% [at 9.22 µM]
Nc1ccc(-c2nc3ccccc3[nH]2)cc1,"inconclusive: 7.94 µM [cytotoxic, partial curve]",
C/C=C(\C)C(=O)OC1c2c(ccc3ccc(=O)oc23)OC(C)(C)C1OC(C)=O (configuration not stated),"inconclusive: 22.4 µM [cytotoxic, single point]",
COCCNc1ncnc2ccc(-c3c(C)noc3C)cc12,,inactive: -10.7%

Compound,Potency,"activity change, negative = cell killing"
CCCCN(C)CCCNC(=O)C1CCN(c2nc3ccc(CC)cc3s2)CC1,"inconclusive: 31.6 µM [cytotoxic, single point]",
Cc1nc(-c2ccccc2)cc(N2CCCC2)n1,,inactive: 2.26%
Cc1ccc(Nc2c(-c3c[nH]c4ccccc34)nc3cc(C)ccn23)cc1,"inconclusive: 15.8 µM [cytotoxic, single point]",
S=C(NCCc1ccc(Cl)cc1)Nc1ccc(Cl)cc1Cl,"inconclusive: 35.5 µM [cytotoxic, single point]",
CCOC(=O)CC(NS(=O)(=O)c1ccc2[nH]c3c(c2c1)CCCC3)c1ccccc1Cl (configuration not stated),active: 12.6 µM,
CC(=O)c1ccc(N2CCN(c3ncnc4c3c(-c3ccccc3)cn4-c3cccc(C)c3)CC2)cc1,"inconclusive: 12.6 µM [cytotoxic, partial curve]",
c1ccc2nc3c(nc2c1)[nH]c1ccccc13,"inconclusive: 10 µM [cytotoxic, partial curve]",
O=C(c1cnn2ccccc12)N1CCc2ccccc21,"inconclusive: 10 µM [cytotoxic, partial curve]",
CCOc1ccc(NC(=O)c2ccc(NC(=O)N3CCSc4ncccc43)cc2)cc1,"inconclusive: 12.6 µM [cytotoxic, partial curve]",
COc1ccccc1CNC(=O)C1CCCN(c2nc3ccccc3n3cccc23)C1 (configuration not stated),,inactive: -24.2%
COC(=O)Cc1c(C)c2cc(Cl)c(OC(=O)c3ccco3)cc2oc1=O,,inactive: 14%
c1ccc2c(NC3CC3)nc(-c3ccoc3)nc2c1,,inactive: -1.71%
CCn1c(C(=O)NCCc2ccc(OC)c(OC)c2)cc2sc(Cl)cc21,,inactive: -22.8%
O=C(c1ccccc1)N1CCN(c2ccc(NCc3ccc4c(c3)OCO4)cc2)CC1,,inactive: 9.82%
CCC(=O)Oc1ccc(/C=C(\C#N)c2nc3ccccc3[nH]2)cc1OC,,inconclusive: -51.5% [cytotoxic]
COc1ccc(-c2cc(C(F)(F)F)nc(S(=O)(=O)CCCC(=O)Nc3cccc(O)c3)n2)cc1OC,active: 3.16 µM,
Cc1ccc(CNC(=O)c2ccc(Cn3c(=O)c4ccccc4n(CC(=O)Nc4ccc(C)cc4C)c3=O)cc2)cc1,"inconclusive: 2.51 µM [cytotoxic, full curve]",
COc1cc(NC(=O)c2cc(-c3cccs3)on2)cc(OC)c1OC,"inconclusive: 31.6 µM [cytotoxic, single point]",
COc1ccccc1N1CCN(c2ncccc2-c2nc(-c3ccc(Cl)cc3)no2)CC1,,inactive: -20.3%
CCN(CC)c1cc(C)c2cc(NC(=O)c3ccccc3OC)ccc2n1,"inconclusive: 12.6 µM [cytotoxic, single point]",
Cc1cc(C(=O)CNCc2ccco2)c(C)n1-c1ccc(F)cc1,"inconclusive: 12.6 µM [cytotoxic, partial curve]",
Cc1ccc(CN(Cc2ccco2)C(=O)COc2cc(C)c(Cl)c(C)c2)cc1,"inconclusive: 20 µM [cytotoxic, partial curve, poor fit]",
COc1ccc(CCNc2ncnc3c2cnn3-c2ccc(C)cc2)cc1,"inconclusive: 0.005 µM [cytotoxic, full curve, poor fit]",

# Source: PubChem BioAssay AID902 (National Center for Advancing Translational Sciences (NCATS), 2007)
